Reference: PubChem BioAssay AID485364 (National Center for Advancing Translational Sciences (NCATS), 2010)
Values joined by “and” are separate entries in the source; they are usually repeats but may differ in a detail not shown here. Identical values can stand only once. Among all 360,000 compounds or so, about 11,000 (3.1%) were called active. The shares of active, inactive and inconclusive entries below differ from those in the screen. Calls come from the whole dose curve; as a rule, active = well fitted inhibition curve with a large enough effect; inconclusive = small, poorly fitted or top-dose-only effect; inactive = no such curve, though single readings can be large or run the other way. A potency beside an inconclusive call is a rough fit, not a confirmed value.

Target: Schistosoma mansoni thioredoxin glutathione reductase (TGR) (UniProt Q962Y6)
Experiment: qHTS Assay for the Inhibitors of Schistosoma Mansoni Peroxiredoxins; note: nearly all actives have a fitted effect of over 60% in size
Details: purified TGR, DTNB reduction, TNB absorbance 405 nm; series mostly up to 114 µM
How it was run: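 TGR 20 nM + NADPH 100 uM (dispensed conc.), cpd preinc 15 min RT; start with NADPH (500 uM addition) then DTNB (15 mM addition). Kinetic TNB absorbance, 405 nm filter. Four-parameter Hill fit across titration.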
Potency is the fitted concentration of half-maximal effect; tags give direction and shape of the fitted curve.

Row | Compound | Potency
1 | CN(CCNC(=O)c1cn(C)c2ccc(S(=O)(=O)N3CCCC3)cc2c1=O)CCc1ccccc1 | inconclusive: 89.1 µM [inhibitor, single point]
2 | CCCC1=C(C(=O)OCC)C(c2c(C)nn(-c3ccccc3)c2Cl)C(C#N)=C(N)O1 (stereo not drawn) | inconclusive: 50.1 µM [inhibitor, partial curve]
3 | CCOc1ccc(/C=c2\sc3nc(-c4ccco4)nn3c2=O)cc1OCC | inconclusive: 44.7 µM [inhibitor, partial curve]
4 | CCSc1nc(O)c(C2OC(=O)c3c2ccc(OC)c3OC)c(=O)n1CC (stereo not drawn) | inconclusive: 31.6 µM [inhibitor, partial curve]
5 | Cc1cc(=O)oc2cc(NC(=O)c3c(Cl)cnn3C)ccc12 | inconclusive: 4.47 µM [inhibitor, full curve, poor fit]
6 | Cn1cnc([N+](=O)[O-])c1SCCO | inconclusive: 2.82 µM [inhibitor, single point]
7 | COc1ccc(/C=C/c2ccccc2)cc1[C@H]1[C@@H]2C=CCC[C@@]2(C)C(=O)N1Cc1ccccc1 | active: 28.2 µM
8 | CN(C)c1ccc(CN(C(=O)/C=C/c2ccco2)C2CCS(=O)(=O)C2)cc1 (stereo not drawn) | active: 25.1 µM
9 | O=[N+]([O-])c1c(NCCCO)cc(N2CCCCCC2)c2nonc12 | active: 11.2 µM
10 | Cc1ccc(C(=O)N2CCC(C)CC2)cc1C | inconclusive: 3.98 µM [inhibitor, single point]
11 | CC1=C(C(=O)N2CCCCC2)C(c2cccs2)C2=C(CCCC2=O)N1 (stereo not drawn) | inconclusive: 50.1 µM [inhibitor, partial curve]
12 | c1cc2c(cc1C1CCCN1)OCCCO2 (stereo not drawn) | inconclusive: 44.7 µM [inhibitor, partial curve]
13 | C=CCn1c(N)c(C(=O)OCCC)c2nc3ccccc3nc21 | inconclusive: 39.8 µM [inhibitor, single point]
14 | COCCn1nnnc1C(C(C)C)N(Cc1cccnc1)Cc1ccccc1Cl (stereo not drawn) | inconclusive: 56.2 µM [inhibitor, partial curve]
15 | CCCCn1c(SCn2nnc3ccccc3c2=O)nc2cc(S(N)(=O)=O)ccc21 | inactive
16 | N#Cc1nc(-c2ccc(OCc3ccc(Cl)cc3)cc2)oc1N1CCOCC1 | inactive
17 | COc1ccc(S(=O)(=O)N(CC(=O)NCc2ccco2)c2ccc(C)cc2)cc1OC | inconclusive: 44.7 µM [inhibitor, partial curve]
18 | O=C(Nc1ccccc1C(=O)O)/C(=C/c1ccc([N+](=O)[O-])cc1)NC(=O)c1ccc(Br)o1 | inconclusive: 50.1 µM [inhibitor, partial curve]
19 | O=C(COc1coc(CN2CCN(Cc3ccccc3)CC2)cc1=O)Nc1ccccc1 | inactive
20 | Cc1cc(C)cc(C(=O)OCC(=O)NCCNC(=O)COC(=O)c2cc(C)cc(C)c2)c1 | inconclusive: 39.8 µM [inhibitor, single point]
21 | NC(=O)c1ccc(C(=O)Nc2ccc([As](=O)(O)O)cc2)cc1 | active: 44.7 µM
22 | COn1c(=O)c(-c2cccs2)[n+]([O-])c2ccccc21 | inconclusive: 44.7 µM [inhibitor, partial curve]
23 | CCOC(=O)c1ccc(Nc2c(-c3ccc(O)cc3)nc3nc[nH]n23)cc1 | inactive

Row | Compound | Potency
24 | COC(=O)c1ccc(N2NC(=O)/C(=C/c3cc(OC)c(O)c(OC)c3)C2=O)cc1 | inconclusive: 17.8 µM [inhibitor, full curve]
25 | Cc1ccccc1CS(=O)(=O)Cc1ccc(C(=O)NCCc2ccccc2)o1 | inconclusive: 56.2 µM [inhibitor, partial curve]
26 | COc1ccccc1N1CCN(C2CCCN(Cc3c(F)cccc3F)C2)CC1 (stereo not drawn) | inactive
27 | O=C(Cc1cccs1)N/N=C/C=C\c1ccco1 | active: 25.1 µM
28 | COc1cc(OC)cc(-n2nc(C(=O)N3CC(C)CC(C)C3)c3ccccc3c2=O)c1 (stereo not drawn) | inactive
29 | CC(Oc1ccccc1)C(=O)Nc1nnc(S(=O)(=O)N2CCCCC2)s1 (stereo not drawn) | inactive
30 | FC(F)(F)c1ccc(CN2C[C@@H]3C(c4ccc(Cl)nc4)C4(c5ccccc5)CC3(C4)[C@H]2c2ccccc2)cc1 (stereo partly drawn) | inconclusive: 28.2 µM [inhibitor, full curve]
31 | COc1ccccc1NC(=O)C(C)OC(=O)/C(=C/c1ccccc1)NC(C)=O (stereo not drawn) | inactive
32 | Clc1ccc(CCNc2ncnc3c2c(-c2ccccc2)cn3-c2ccccc2)cc1 | inactive
33 | CCCCN(C)CCNC(=O)c1cn(C)c(=O)c2c1c1ccccc1n2C | active: 44.7 µM
34 | S=C(NCCCN1CCOCC1)Nc1cccc(Cl)c1 | inconclusive: 56.2 µM [inhibitor, partial curve, poor fit]
35 | O=C(c1ccc(NC(=S)Nc2ccc(Cl)c(Cl)c2)cc1)N1CCCC1 | inconclusive: 50.1 µM [inhibitor, partial curve]
36 | Cc1ccc2ccc(C(Nc3ccccn3)c3ccccc3)c(O)c2n1 (stereo not drawn) | active: 2.24 µM and active: 2.82 µM
37 | CC(NC(=O)c1ccco1)C(=O)Nc1nc(-c2ccccn2)cs1 (stereo not drawn) | inconclusive: 50.1 µM [inhibitor, partial curve]
38 | CCN(CC)CCn1c(SCC(=O)NCc2ccco2)nc2c(sc3ccccc32)c1=O | active: 31.6 µM
39 | Cc1cccc(-c2n[nH]c(=S)n2/N=C/C=C/c2ccco2)c1 | active: 11.2 µM
40 | Cc1ccc2cccc(OCC(=O)c3cc(C)n(Cc4ccco4)c3C)c2n1 | inconclusive: 44.7 µM [inhibitor, partial curve]
41 | O=C(CCN1CCN(c2ccc([N+](=O)[O-])cc2)CC1)c1ccc(Cl)cc1 | inconclusive: 0.251 µM [inhibitor, full curve, poor fit]
42 | CCC(Oc1ccccc1)C(=O)Nc1ccccc1OCc1cc(=O)n2ccccc2n1 (stereo not drawn) | inactive
43 | COc1ccccc1S(=O)(=O)Cc1ccc(C(=O)N2CCN(c3ccc(C)cc3)C(C)C2)o1 (stereo not drawn) | inconclusive: 50.1 µM [inhibitor, partial curve]
44 | CC(=O)c1cccc(N(C(=O)CNC(=O)c2ccco2)C(C(=O)NC2CCCC2)c2ccco2)c1 (stereo not drawn) | inconclusive: 79.4 µM [inhibitor, single point]
45 | COc1ccc(N2CCN(C(c3cc4cc(C)ccc4[nH]c3=O)c3nnnn3Cc3ccccc3)CC2)cc1 (stereo not drawn) | inconclusive: 50.1 µM [inhibitor, partial curve]
46 | CCOC(=O)C=C(C(=O)OCC)C(=O)OCC | active: 1.58 µM

Row | Compound | Potency
47 | O=C(CCc1ccccc1Cl)Nc1cc2c(cc1C(=O)O)OCCCO2 | inactive
48 | Cc1cc2nc3ccc(=[N+](C)C)cc-3sc2cc1N | inconclusive: 2.82 µM [inhibitor, full curve]
49 | CCCCCCc1ccc(N2C[C@H](CCCCC)[C@@H](CC(=O)NCc3ccc(OC)cc3)C2=O)cc1 | inactive
50 | Cc1ccc(S(=O)(=O)c2cc3c(=O)n4cccc(C)c4nc3n(C3CCCCC3)c2=N)cc1 | inactive
51 | Cc1coc(C)c1C(=O)CC1(O)C(=O)N(CCc2ccccc2)c2ccccc21 (stereo not drawn) | active: 14.1 µM
52 | Cc1cc(C)c2c(=O)n(CC(=O)NC3CCCC3)sc2n1 | inconclusive: 56.2 µM [inhibitor, partial curve]
53 | Cc1ccc2c(C(=O)CN3CCC(C(N)=O)CC3)c(C)[nH]c2c1 | active: 35.5 µM
54 | Cc1cc(/C=C2\NC(=O)NC2=O)c(C)n1-c1ccc(N2CCOCC2)cc1 | inconclusive: 20 µM [inhibitor, full curve]
55 | COc1ccc(CN2CCNCC2)c(OC)c1OC | inactive and inconclusive: 44.7 µM [inhibitor, partial curve]
56 | O=[N+]([O-])CC1(n2nc3ccccc3n2)CCCCC1 | inconclusive: 35.5 µM [inhibitor, full curve]
57 | COC(=O)c1ccccc1NC(=O)c1ccc(-c2cccc(Cl)c2)o1 | inactive
58 | COc1cc(Cl)ccc1OCc1cc(C(=O)N(C)Cc2cn(C)nc2C)no1 | inconclusive: 100 µM [inhibitor, partial curve, poor fit]
59 | FC(F)(F)c1ccc(CN2C[C@@H]3C(c4ccccc4)C4(c5ccccc5)CC3(C4)[C@H]2c2ccccc2)cc1 (stereo partly drawn) | inconclusive: 44.7 µM [inhibitor, partial curve]
60 | COc1cccc(NC(=O)COC(=O)/C=C/c2ccco2)c1 | active: 31.6 µM
61 | COc1cc(OC)cc(C(=O)NC(=S)Nc2cc3oc4ccccc4c3cc2OC)c1 | inconclusive: 4.47 µM [inhibitor, partial curve, poor fit]
62 | CCN1C(=O)[C@H]2[C@@H](c3ccc(-c4ccc(OC)cc4)cc3)N3CCC[C@@]3(C(=O)OC)[C@H]2C1=O | inconclusive: 39.8 µM [inhibitor, full curve, poor fit]
63 | COc1cc(CN2CCNC(=O)C2CC(=O)NCCc2ncccc2C)cc(OC)c1 (stereo not drawn) | inconclusive: 35.5 µM [inhibitor, partial curve]
64 | O=c1c2cc(NC(=S)NC3CC3)ccc2nc2n1CCCCC2 | inconclusive: 50.1 µM [inhibitor, partial curve]
65 | COc1ccccc1NC(=O)N(Cc1ccco1)Cc1cc2c(C)ccc(C)c2[nH]c1=O | active: 31.6 µM
66 | Cc1c2cnn(-c3ccccc3)c(=O)c2c(C)n1CCCC(=O)Nc1ccc(F)cc1F | inconclusive: 50.1 µM [inhibitor, partial curve]
67 | O=C(O)c1ccc2[nH]c3c(c2c1)CSCC3 | inconclusive: 39.8 µM [inhibitor, partial curve]
68 | C[n+]1ccc(C(=O)Nc2ccccc2Cl)cc1 | inconclusive: 35.5 µM [inhibitor, partial curve]
